The record followed here is PubChem BioAssay (NCI).

Where “and” joins values, the source holds several entries; their conditions need not be identical. Identical values can stand only once.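 Exposure lasted 48 hours, with cells grown in 96-well plates and compounds tested at five concentrations. GI50: concentration for 50% inhibition of growth. TGI marks complete inhibition of growth.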 Peptide text beside a SMILES is read from it.

In the test the test system is NCI-H322M lung. The experiment in a line: inhibition of tumour cell growth, NCI panel, 48 h.
Compound `COc1cc(/C=C2\N=C(c3ccccc3)N(c3ccc(C(=O)c4ccccc4)cc3N3C(=O)/C(=C/c4ccc(O)c(OC)c4)N=C3c3ccccc3)C2=O)ccc1O` came in with a TGI of 74 µM. Same read-out and setting: with `C=CCC1(Sc2ccccn2)Sc2ccc3ccccc3c2-c2c(ccc3ccccc23)S1` the figure was more than 100 µM. `COCCOC1=CC(=O)c2c(O)ccc(O)c2C1=O`: the GI50 was 1.77 µM; the TGI is 2.76 µM and 3.17 µM. Take `COc1ccc2c(c1)-c1c(c3cc(OC)ccc3n1CCCN(C)C)CC2`: the TGI came out at 26.8 µM. For `CC(C)(C)CC(C)(C)c1ccc(O)c(Cc2ccc(Cl)cc2Cl)c1`, the GI50 is 1.64 µM and the TGI came to 3 µM.

`CNC(=O)C1(C#N)C(c2ccccc2)C(C#N)(C(=O)NC)C1c1ccccc1` (configuration not stated) showed a TGI of more than 100 µM.

Consider `COC(=O)[C@@]1(C)C(=O)CC[C@@H]1C=O`, for which the TGI is more than 100 µM. The compound `CC1C2CC(CC2(C)O)C1(C)C` (configuration not stated) yielded a TGI of more than 100 µM.

Regarding `NC(=O)C1CCCN1C(=O)C(N)Cc1ccccc1` (stereo not drawn) (H-Phe-Pro-NH2; configuration not given here), the TGI was more than 100 µM. As for `CC(C)(C)c1cc(/C=N/NC(=O)c2ccccc2NC(=O)c2cccs2)c(O)c(C(C)(C)C)c1`, the GI50 is 0.736 µM and the TGI was 39.5 µM.

For the compound `CC(=O)NC(Cc1ccccc1)NC(=O)O` (configuration not stated), the TGI is more than 100 µM.

The compound `O=C(c1ccccc1Cl)n1oc2ccccc2c1=O` showed a TGI of more than 100 µM. The same measure, in the same setting: with `Cn1c(=O)nc2n(-c3ccc(Cl)cc3)c3cc(Cl)ccc3nc-2c1=O` the figure was 23.5 µM. The same measure, in the same setting: with `Cn1c2c(c3ccccc31)CCN(CCCCN1CCN(c3ccccc3)CC1)C2=O` the figure was more than 100 µM. `O=[N+]([O-])c1ccc(C(Cl)C(Cl)c2ccc(C(Cl)C(Cl)c3ccc([N+](=O)[O-])cc3[N+](=O)[O-])cc2)c([N+](=O)[O-])c1` (configuration not stated): the GI50 was 0.979 µM; the TGI was > 62 µM and 6.6 µM.

The compound `C/C=C(/C)C(=O)O[C@H]1[C@H]2[C@@H]([C@@H](OC(C)=O)[C@H](C)C(=O)[C@@]34C[C@@H](C)C(=O)[C@]3(/C=C(\C)[C@H]1OC(C)=O)O4)C2(C)C` returned a TGI of more than 20 µM. The same measure, in the same setting: with `COC(=O)c1ncc2c(=O)[nH]c3ccccc3c2c1C(=O)OC` the figure was more than 100 µM; with `Nc1ccc(O)c2c1C(=O)c1c(N)ccc(O)c1C2=O`, more than 100 µM.

On to `OC[C@H]1NC[C@@H](O)[C@@H](O)[C@H]1O`, for which the TGI was more than 100 µM. The same measure, in the same setting: with `N#CCC(=O)N/N=C1/C(=O)N(c2cc(Cl)ccc2Cl)C(=O)C(=O)C1c1nc2ccccc2s1` (configuration not stated) the figure was more than 100 µM. On to `CN(C)CC(=O)Nc1ccc2ncnc(Nc3ccc(Oc4cccc(C(F)(F)F)c4)c(Cl)c3)c2c1`, for which the GI50 is 1.88 µM and the TGI was found to be 6.65 µM. `Cc1cc2nc(C=C(C(F)(F)F)C(F)(F)F)sc2cc1C` registered a TGI of 5.53 µM. In the case of `O=C(O)CC(NC(=O)/C(=C/c1ccccc1)NC(=O)c1ccccc1)C(=O)O` (configuration not stated), the TGI is more than 100 µM. Still for that read-out and setting: as for `CCOC(=O)c1ccc(C(=O)n2ccnc2)[nH]1`, the figure is more than 100 µM; as for `CCOc1ccc(/C=C/c2cc(OC)c(OC)c(OC)c2)cc1`, 19.8 µM; as for `CC1=NN(C(=O)Nc2ccc(Cl)cc2)C(=O)C2CCC(=O)N12` (configuration not stated), more than 100 µM. Compound `CC(NCc1c(O)ccc2ccc(=O)oc12)C(=O)O` (configuration not stated) returned a TGI of more than 100 µM. For the compound `c1cc2nnsc2s1`, the TGI is more than 100 µM.

Regarding `CC1(C)N=C(N)N=C(N)N1c1ccc(OCCCNC(=O)Nc2cccc(S(=O)(=O)F)c2)c(Cl)c1`, the GI50 was 9.51 µM and the TGI is more than 100 µM. In turn, `CCOC(=O)C(CCC(N)=O)(CCC(=O)OC)C(=O)OCC` gave a TGI of more than 100 µM.

Regarding `COC1=C(C)C(=O)c2c(c(CCCl)c3n2CCC3OC(C)=O)C1=O` (configuration not stated), the GI50 is 0.186 µM and the TGI amounted to 3.99 µM. For `CC(C)CCCC(C)[C@H]1CC[C@H]2n3c(nc4ccccc43)CCC[C@]12C` (some centres not stated), the TGI was 37.2 µM.

Regarding `CC(=O)OCC1OC(c2c(OC(C)=O)cc(C)c3c(=O)cc(/C(C(C)=O)=C(\C)O)oc23)C(OC(C)=O)C(OC(C)=O)C1OC(C)=O` (configuration not stated), the TGI was more than 100 µM. Still for that read-out and setting: as for `COc1ccccc1C(=O)NO`, the figure is more than 100 µM.

With `Cc1ccc(OCC2OC(n3cnc4nc(Nc5ccc(Cl)c(Cl)c5)nc(Cl)c43)CC2Oc2ccc(C)cc2)cc1` (configuration not stated), the TGI was more than 100 µM.

For the compound `CC(=O)O[C@H]1CCN2C(=O)C=CC(OCc3ccccc3)C12` (some centres not stated), the TGI was more than 100 µM. Same read-out and setting: with `CCN1c2cc(Br)cc3[nH]c(=O)n(c23)CCC1C` (configuration not stated) the figure was 39.9 µM; with `C=C1[C@H](OCC(C)C)[C@@H](O)[C@@H](OC(=O)c2cccnc2)C(C)(C)/C=C/[C@H](C)[C@H](OC(C)=O)[C@@]2(O)C[C@@](C)(OC(C)=O)[C@H](OC(=O)c3ccccc3)[C@@H]2[C@H]1OC(C)=O`, more than 5 µM.

`CC(=O)OCCOCNC(=S)N/N=C/c1cc([N+](=O)[O-])ccc1O` yielded a TGI of more than 100 µM. As to `C=C1C(=O)O[C@H]2[C@H](OC(C)=O)[C@@H](C)CCCC3(C)OC3CCC3(CO3)[C@H](O)C[C@@H]12` (some centres not stated), the GI50 is 17.8 µM and the TGI came to 38 µM.

For the compound `CC(=O)OCC1OC(N2C(c3ccccc3)=CC(c3ccco3)C(C#N)=C2S)C(OC(C)=O)C(OC(C)=O)C1OC(C)=O` (configuration not stated), the TGI is more than 100 µM. In turn, `CCOC(=O)CC1(Cc2ccc(OCc3ccccc3)cc2)C(=O)OC(c2ccccc2)N1C(=O)c1ccccc1` (configuration not stated) showed a TGI of more than 100 µM. The same measure, in the same setting: as for `COc1cc2c(c(O)c1OC)C(=O)[C@@H]1CCC(=O)N1C2c1ccccc1` (some centres not stated), the figure is more than 100 µM. The same measure, in the same setting: with `O=C(NCCCl)Nc1cccnc1` the figure was 42 µM; with `C[C@@H]1C(=O)O[C@H]1[C@H](O)CO`, more than 100 µM; with `NS(=O)(=O)c1ccc(NC(=O)Cc2nc3ccccc3s2)cc1`, 31.8 µM. Still for that read-out and setting: as for `O=C(NNC1=NCCCN1)c1ccco1`, the figure is more than 100 µM; as for `CCOC(=O)Cc1nnc2n(-c3ccccc3)c(=O)c3ccccc3n12`, more than 100 µM. Take `N#CC(C#N)=C1CCOc2ccc(F)cc21`: the GI50 is 15.3 µM and the TGI came to 54.3 µM. With `O=C(Oc1c(Cl)cc(C2(c3cc(Cl)c(OC(=O)c4ccccc4)c(Cl)c3)CCCCC2)cc1Cl)c1ccccc1`, the TGI was 25.9 µM. On the same count and under the same terms, as for `O=S1(=O)c2ccccc2C(Nc2ccccc2)N1c1ccccc1` (configuration not stated), the figure is more than 100 µM. Same read-out and setting: as for `CN(C)C=Nc1c2ccccc2nc2ccccc12`, the figure is 35.7 µM. In the case of `Cc1ccc2cccc(OC(=O)Nc3cccc(C(F)(F)F)c3)c2n1`, the GI50 is 3.48 µM and the TGI was determined as 18.8 µM. In the case of `CON(C)C(=O)[C@H]1C[C@@]1(C)CO`, the TGI was more than 100 µM. As to `COc1ccc(N2C(=O)C3c4[nH]c5ccccc5c4C4CC(C)(C)CC(C)(C)C4C3C2=O)cc1` (configuration not stated), the TGI was determined as 45.7 µM. Same read-out and setting: with `CCCCCCCCCCCCCC1=C(O)C(=O)C(CC2=C(O)C(=O)C(CCCCCCCCCCCCC)=C(O)C2=O)=C(O)C1=O` the figure was more than 100 µM. `COc1cc(/C=N/c2nc3cc4sc(/N=C/c5cc(OC)c(OC)c(OC)c5)nc4cc3s2)cc(OC)c1OC` came in with a TGI of more than 100 µM. The compound `CCCCNS(=O)(=O)c1n[nH]c(=O)[nH]c1=O` gave a TGI of more than 100 µM. Regarding `CCOC(=O)C1=C(C)NC(=O)NC1CN1C(=O)c2ccccc2C1=O` (configuration not stated), the GI50 was more than 100 µM and the TGI is more than 100 µM.

`CSc1nc2nn(Cc3ccccc3)cc2c(=O)[nH]1` had a TGI of more than 100 µM. Same read-out and setting: as for `O=C1OC(C2Cc3ccc4c(c3C2=O)CCC4)c2ccccc21` (configuration not stated), the figure is more than 100 µM.

The compound `CCCCCCn1c(SC)nc(COC(=O)NC)c1COC(=O)NC` registered a TGI of 31.8 µM.

Turning to `COc1ccc2c(C)c(Oc3c(Cl)c(Cl)c(O)c(C#N)c3C#N)oc2c1`, the TGI is more than 100 µM.

As to `c1ccncc1`, the TGI is more than 100 µM.

The compound `CC(c1ccc2c(c1)CCC1C2CC2OC23CC=CC(=O)[C@]13C)C1C[C@]2(C)O[C@]2(C)[C@H](O)O1` (some centres not stated) registered a TGI of more than 100 µM. The same measure, in the same setting: with `CCC1C(C(=O)Nc2ccccc2C)=C(C)NC(C)=C1c1ccccc1C` (configuration not stated) the figure was more than 100 µM; with `COc1c(/C=C/C=O)cc2c(c1OC)OCO2`, more than 100 µM. Same read-out and setting: as for `CCOC(=O)C1(C/C=C/CCl)CCCC1=O` (configuration not stated), the figure is 58.7 µM. Same read-out and setting: with `N/N=C(\c1nc2ccc([N+](=O)[O-])cc2[nH]c1=O)C(O)c1ccc(Cl)c(Cl)c1` (configuration not stated) the figure was more than 100 µM. With `COc1ccc(NC2=C(I)C(=O)c3ncccc3C2=O)cc1`, the GI50 is 1.49 µM and the TGI turned out to be 2.87 µM.

For `C=C1C(=O)O[C@@H]2/C=C(\C)CC/C=C(\C)CC[C@@]12O`, the TGI is 27.1 µM.

As to `Clc1cc(Cl)c2cc3cccc[n+]3cc2c1Cl`, the TGI was determined as 48.4 µM.

As to `CC[C@@]1(O)C(=O)OCc2c1cc1n(c2=O)Cc2cc3ccccc3nc2-1`, the GI50 was 0.0698 µM and the TGI came out at 3.57 µM. On the same counts, the results for `C#Cc1cccc(Nc2ncnc3ccc(OCCCCNCCS(C)(=O)=O)cc23)c1` are 0.529 µM and more than 16.2 µM. The compound `CCCC1CC(=O)NC(=O)C1C(=O)OC(C)(C)C` (configuration not stated) gave a TGI of more than 100 µM.

Compound `COc1ccc2nc3c([N+](=O)[O-])ccc4c3c(c2c1)NCCN4CCN(C)C` returned a TGI of 1.89 µM. With `N#Cc1ccc(-c2nc3c(N)nc(-c4ccccc4)nc3o2)cc1`, the TGI was more than 100 µM. Same read-out and setting: with `O=C(Cc1ccccc1)NN1C(=O)/C(=C\c2cccc([N+](=O)[O-])c2)SC1=Nc1ccccc1` the figure was more than 100 µM; with `Cc1[nH]c(=O)[nH]c(=O)c1/C=C/C(=O)NC(CO)CS(=O)CS(C)=O` (configuration not stated), 71 µM; with `C=C1C[C@@H]2O[C@H]3[C@H]4[C@@H](C[C@@H](C)[C@@H](OC(C)=O)[C@H]42)[C@@H](C)CO[C@@]3(C)[C@H](OC(=O)CCCCCCC)C[C@H]1O`, 33.1 µM. As for `O=c1c2ccccc2c(/C=N\NC2=NCCN2)c2oc3ccccc3n12`, the GI50 is 28.2 µM and the TGI turned out to be 86.3 µM.

In turn, `COc1cccc(/C=C/C(=O)c2sc(C(N)=S)nc2C)c1O` had a TGI of more than 100 µM.

For `CC(=O)OCC1OC(OC2C(COC(C)=O)OC(Sc3ccccc3C)C(OC(C)=O)C2OC(C)=O)C(OC(C)=O)C(OC(C)=O)C1OC(C)=O` (configuration not stated), the TGI is more than 100 µM. Still for that read-out and setting: as for `CC(=O)Nc1ccc(C(=O)NN2C(=O)CSC2c2ccc(O)cc2)cc1` (configuration not stated), the figure is more than 100 µM; as for `CCN(CC)CC(C)C(=O)/C=C/c1ccc(C)cc1` (configuration not stated), 26 µM; as for `CC(=O)c1cc2c(s1)C(=O)c1sccc1C2=O`, 0.394 µM.

With `CNC1Cc2c[nH]c3cccc(c23)C12C=C(C)C(=O)O2` (configuration not stated), the TGI is more than 100 µM.
